Structures are written as SMILES. The list shows a part of the results. Repeats are few or missing, and single values can be far off.
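Further: cells treated in 1,536-well plates, then fixed and DAPI-stained, with nuclei counted from automated high-throughput microscope images.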

The test relates to WM115. The test can be described thus: cell count relative to DMSO control; melanoma cells; higher = more viable cells. The following applies: library dose: standard library concentration; 72 h.
With `Cc1cc(Nc2cc(N3CCN(C)CC3)nc(Sc3ccc(NC(=O)C4CC4)cc3)n2)n[nH]1` [Tozasertib] + O=C(CCCCCCC(=O)Nc1ccccc1)NO [vorinostat] (first compound 0.03 µM, partner dose 0.4 µM), the cell count came to 42.9%.
For the compound `Cc1cc(Nc2cc(N3CCN(C)CC3)nc(Sc3ccc(NC(=O)C4CC4)cc3)n2)n[nH]1` [Tozasertib] + Nc1nc(F)nc2c1ncn2[C@@H]1O[C@H](CO)[C@@H](O)[C@@H]1O [fludarabine] (first compound 0.03 µM, partner dose 1 µM), the cell count came out at 55.8%.
`N#CC[C@H](C1CCCC1)n1cc(-c2ncnc3[nH]ccc23)cn1` [ruxolitinib] + C=CCNC1=C2C[C@@H](C)C[C@H](OC)[C@H](O)[C@@H](C)/C=C(\C)[C@H](OC(N)=O)[C@@H](OC)/C=C\C=C(/C)C(=O)NC(=CC1=O)C2=O [Tanespimycin] (first compound 5 µM, partner dose 0.01 µM) gave a cell count of 32.1%.
For `N#CC[C@H](C1CCCC1)n1cc(-c2ncnc3[nH]ccc23)cn1` [ruxolitinib] + CO[C@@H]1[C@H](N(C)C(=O)c2ccccc2)C[C@H]2O[C@]1(C)n1c3ccccc3c3c4c(c5c6ccccc6n2c5c31)C(=O)NC4 [Midostaurin] (first compound 5 µM, partner dose 0.4 µM) the value was 43.4%; for `Cc1cc(Nc2cc(N3CCN(C)CC3)nc(Sc3ccc(NC(=O)C4CC4)cc3)n2)n[nH]1` [Tozasertib] + COc1cc2c(Oc3ccc4[nH]c(C)cc4c3F)ncnc2cc1OCCCN1CCCC1 [cediranib] (first compound 0.03 µM, partner dose 2 µM), 38.3%.
Turning to `CC[C@]1(O)C[C@H]2CN(CCc3c([nH]c4ccccc34)[C@@](C(=O)OC)(c3cc4c(cc3OC)N(C=O)[C@H]3[C@@](O)(C(=O)OC)[C@H](OC(C)=O)[C@]5(CC)C=CCN6CC[C@]43[C@@H]65)C2)C1` [vincristine] + COc1cc(Nc2ncc(F)c(Nc3ccc4c(n3)NC(=O)C(C)(C)O4)n2)cc(OC)c1OC [Tamatinib] (first compound 0.0005 µM, partner dose 2 µM), the cell count came out at 14.6%.
For `N#CC[C@H](C1CCCC1)n1cc(-c2ncnc3[nH]ccc23)cn1` [ruxolitinib] + CC1(C)NC(=O)N(c2ccc([N+](=O)[O-])c(C(F)(F)F)c2)C1=O [nilutamide] (first compound 5 µM, partner dose 5 µM) the value was 69.2%; for `CC[C@]1(O)C[C@H]2CN(CCc3c([nH]c4ccccc34)[C@@](C(=O)OC)(c3cc4c(cc3OC)N(C=O)[C@H]3[C@@](O)(C(=O)OC)[C@H](OC(C)=O)[C@]5(CC)C=CCN6CC[C@]43[C@@H]65)C2)C1` [vincristine] + CC1(C)NC(=O)N(c2ccc([N+](=O)[O-])c(C(F)(F)F)c2)C1=O [nilutamide] (first compound 0.0005 µM, partner dose 5 µM), 27.4%; for `N#CC[C@H](C1CCCC1)n1cc(-c2ncnc3[nH]ccc23)cn1` [ruxolitinib] + CC(C)C[C@H](NC(=O)[C@H](Cc1ccccc1)NC(=O)c1cnccn1)B(O)O [Bortezomib] (first compound 5 µM, partner dose 0.005 µM), 26.8%.
As to `CC[C@]1(O)C[C@H]2CN(CCc3c([nH]c4ccccc34)[C@@](C(=O)OC)(c3cc4c(cc3OC)N(C=O)[C@H]3[C@@](O)(C(=O)OC)[C@H](OC(C)=O)[C@]5(CC)C=CCN6CC[C@]43[C@@H]65)C2)C1` [vincristine] + COC(=O)c1sccc1S(=O)(=O)Nc1ccc(Nc2ccccc2)cc1OC [GSK0660] (first compound 0.0005 µM, partner dose 5 µM), the cell count was found to be 25%.
As to `N#CC[C@H](C1CCCC1)n1cc(-c2ncnc3[nH]ccc23)cn1` [ruxolitinib] + CS(=O)(=O)CCNCc1ccc(-c2ccc3ncnc(Nc4ccc(OCc5cccc(F)c5)c(Cl)c4)c3c2)o1 [lapatinib] (first compound 5 µM, partner dose 4 µM), the cell count was 82.4%.
Take `Cc1cc(Nc2cc(N3CCN(C)CC3)nc(Sc3ccc(NC(=O)C4CC4)cc3)n2)n[nH]1` [Tozasertib] + C[C@]1(c2nc3c(C(N)=O)cccc3[nH]2)CCCN1 [Veliparib] (first compound 0.03 µM, partner dose 7 µM): the cell count was determined as 70.4%.

The record behind these values is the supplement of paper PMC4604168 (melanoma cell lines).
